From paper PMC11211441, “Distributable, metabolic PET reporting of tuberculosis” (Nature Communications, 2024)

Experiments:
[1] = test system: OtsA; conditions: OtsA expressed from E. coli; cited from earlier work
[2] = target: OtsB^Sf (Escherichia coli, UniProt P31678); assay: OtsB^Sf enzyme kinetics (1H NMR); conditions: enzyme expressed from Spodoptera frugiperda; continuous 1H NMR assay, 37 °C
[3] = target: OtsB (Escherichia coli, UniProt P31678); assay: OtsB enzyme kinetics (enzyme expressed in E. coli); conditions: continuous 1H NMR assay, 37 °C
[4] = In vivo metabolism of 18F-labeled trehalose analogs in rabbits; conditions: for % 2-FDT: rabbits
[5] = test system: Mtb-infected marmoset lung lesions; assay: PET/CT imaging of tracer uptake in marmoset TB model; format: in vivo
[6] = test system: Mtb (strain Erdman) lesions; assay: PET/CT imaging in Mtb-infected cynomolgus macaques; format: in vivo; conditions: 120 min
[7] = Dynamic PET biodistribution and dosimetry in naive rhesus macaque; format: in vivo
[8] = Biodistribution by gamma counting in Mtb-infected marmosets; format: in vivo, marmoset; conditions: two Mtb-infected marmosets, 74 MBq/kg, 120 min post-injection
[9] = Single and repeat iv dose toxicity study in rats; conditions: both sexes, rat, in vivo, Sprague Dawley rats
[10] = Single and repeat iv dose toxicity study in dogs; conditions: both sexes, dog, in vivo, beagle dogs
[11] = rhesus data extrapolated to humans

Chain of UniProt P31678 (P31678 whole entry): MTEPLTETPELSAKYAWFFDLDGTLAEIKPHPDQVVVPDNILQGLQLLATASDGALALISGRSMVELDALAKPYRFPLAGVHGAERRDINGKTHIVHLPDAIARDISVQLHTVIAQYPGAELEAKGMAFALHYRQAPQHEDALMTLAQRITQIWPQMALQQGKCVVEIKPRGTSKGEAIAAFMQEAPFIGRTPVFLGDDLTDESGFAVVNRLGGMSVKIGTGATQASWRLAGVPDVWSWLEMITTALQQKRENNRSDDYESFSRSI

O=C[C@H](O)[C@@H](O)[C@H](O)[C@H](O)COP(=O)(O)O [G6P, Glucose-6-phosphate]
Km [1]: 7.3 ± 0.6 mM
kcat [1]: 34 ± 1 s⁻¹

O=P(O)(O)OC[C@H]1O[C@H](O[C@H]2O[C@H](CO)[C@@H](O)[C@H](O)[C@H]2O)[C@H](O)[C@@H](O)[C@@H]1O [T6P, trehalose-6-phosphate]
Km [2]: 2.8 ± 0.7 mM
kcat [2]: 740 ± 96 s⁻¹
Km [3]: 3.6 ± 0.8 mM
kcat [3]: 286 ± 34 s⁻¹

OC[C@H]1O[C@H](O[C@H]2O[C@H](CO)[C@@H](O)[C@H](O)[C@H]2[18F])[C@H](O)[C@@H](O)[C@@H]1O [[^18F]FDT, 2-[^18F]fluoro-2-deoxytrehalose]
degradation in vivo ([4]; Mtb-infected and naive rabbits): little apparent degradation
radiochemical purity maintained ([4]; blood and urine of rabbits): > 95%
% 2-FDT ([4]; 50 min (Fig. S3E)): 98.5%
% 2-FDT ([4]; 115 min (Fig. S3E)): 94.6%
% 2-FDT ([4]; urine (120 min) (Fig. S3E)): 95.8%
labeling intensity relative to [18F]FDG ([5]; Mtb-infected marmosets): about half
reduction of average uptake of [18F]FDT into lesions by pre-blocking ([5]; cold [19F]FDT administered 1 h and 5 min prior to radiotracer, infected marmosets): 40%
reduction in SUV signal during treatment ([5]; marmosets, 4 weeks HRZE, mean ± SD): 33 ± 13%
signal in lung of naive marmoset ([5]; naive vs ~45-day Mtb-infected marmoset): low background signal
uptake in lesions with culturable mycobacteria vs sterile lesions [6]: significantly higher
difference in exposure vs FDG ([7]; bladder wall, kidneys, adrenals): 2-to-5 fold
distribution / excretion ([7]; healthy rhesus macaque, 151 MBq iv, ~115 min dynamic PET): prominent accumulation of radioactivity in kidney and urinary bladder
effective dose [7, 11]: 0.0154 mSv/MBq
organ radiation absorbed dose, kidneys [7, 11]: 0.119 mSv/MBq
tissue uptake of the radiotracer [8]: little tissue uptake of the radiotracer in organs other than in kidney

OC[C@H]1O[C@H](O[C@H]2O[C@H](CO)[C@@H](O)[C@H](O)[C@H]2F)[C@H](O)[C@@H](O)[C@@H]1O [[^19F]FDT]
NOAEL at 7 days ([9]; 1.32 mg/kg/day, daily IV administration for 7 consecutive days): ≥ 1.32 mg/kg/day
NOAEL ([9]; single IV injection): ≥ 13.2 mg/kg
NOAEL at 7 days ([10]; 0.4 mg/kg/day, daily IV administration for 7 consecutive days): ≥ 0.4 mg/kg/day
NOAEL ([10]; single IV injection): ≥ 4 mg/kg
